Laboratory results taken from the supplement of paper PMC12067093, “Discovery and optimisation of a covalent ligand for TRIM25 and its application to targeted protein ubiquitination” (Chemical Science, 2025).
About 21,000 targets were measured; listed, in parts, are those with the largest changes and a random draw of the rest.

Compound: Cc1cc(ccc1-c1ccccc1)C(=O)N1CCCN(CC1)C(=O)CCl [compound 10]
Assay: probe-labelled cysteine peptide fold change vs DMSO (competition) (log2 fold change); higher = less target engagement (more negative = stronger competition)
Details: 10 µM; THP-1; incubation time: 4 h
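Note: competitive profiling in live THP-1 cells: cysteine peptides tagged with an iodoacetamide desthiobiotin (IA-DTB) probe, intensity after compound treatment relative to DMSO-treated cells.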

Sequence of UniProt Q99832 (Q99832 whole entry, looked up): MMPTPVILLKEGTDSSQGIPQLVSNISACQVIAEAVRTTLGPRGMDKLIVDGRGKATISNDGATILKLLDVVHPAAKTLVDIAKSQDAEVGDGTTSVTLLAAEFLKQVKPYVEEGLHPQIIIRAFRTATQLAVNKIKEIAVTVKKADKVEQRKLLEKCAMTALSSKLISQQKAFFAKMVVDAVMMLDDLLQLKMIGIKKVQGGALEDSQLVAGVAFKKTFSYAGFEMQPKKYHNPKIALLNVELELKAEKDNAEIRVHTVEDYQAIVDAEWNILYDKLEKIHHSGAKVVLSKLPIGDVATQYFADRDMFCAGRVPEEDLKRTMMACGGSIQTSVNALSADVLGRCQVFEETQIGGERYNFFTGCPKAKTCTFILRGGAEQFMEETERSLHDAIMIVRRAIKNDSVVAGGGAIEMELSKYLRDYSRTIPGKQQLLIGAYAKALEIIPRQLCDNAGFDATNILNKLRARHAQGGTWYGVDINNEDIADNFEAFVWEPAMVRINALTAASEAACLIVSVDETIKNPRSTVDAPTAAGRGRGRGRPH
Sequence of UniProt Q9UPN4 (Q9UPN4 whole entry, looked up): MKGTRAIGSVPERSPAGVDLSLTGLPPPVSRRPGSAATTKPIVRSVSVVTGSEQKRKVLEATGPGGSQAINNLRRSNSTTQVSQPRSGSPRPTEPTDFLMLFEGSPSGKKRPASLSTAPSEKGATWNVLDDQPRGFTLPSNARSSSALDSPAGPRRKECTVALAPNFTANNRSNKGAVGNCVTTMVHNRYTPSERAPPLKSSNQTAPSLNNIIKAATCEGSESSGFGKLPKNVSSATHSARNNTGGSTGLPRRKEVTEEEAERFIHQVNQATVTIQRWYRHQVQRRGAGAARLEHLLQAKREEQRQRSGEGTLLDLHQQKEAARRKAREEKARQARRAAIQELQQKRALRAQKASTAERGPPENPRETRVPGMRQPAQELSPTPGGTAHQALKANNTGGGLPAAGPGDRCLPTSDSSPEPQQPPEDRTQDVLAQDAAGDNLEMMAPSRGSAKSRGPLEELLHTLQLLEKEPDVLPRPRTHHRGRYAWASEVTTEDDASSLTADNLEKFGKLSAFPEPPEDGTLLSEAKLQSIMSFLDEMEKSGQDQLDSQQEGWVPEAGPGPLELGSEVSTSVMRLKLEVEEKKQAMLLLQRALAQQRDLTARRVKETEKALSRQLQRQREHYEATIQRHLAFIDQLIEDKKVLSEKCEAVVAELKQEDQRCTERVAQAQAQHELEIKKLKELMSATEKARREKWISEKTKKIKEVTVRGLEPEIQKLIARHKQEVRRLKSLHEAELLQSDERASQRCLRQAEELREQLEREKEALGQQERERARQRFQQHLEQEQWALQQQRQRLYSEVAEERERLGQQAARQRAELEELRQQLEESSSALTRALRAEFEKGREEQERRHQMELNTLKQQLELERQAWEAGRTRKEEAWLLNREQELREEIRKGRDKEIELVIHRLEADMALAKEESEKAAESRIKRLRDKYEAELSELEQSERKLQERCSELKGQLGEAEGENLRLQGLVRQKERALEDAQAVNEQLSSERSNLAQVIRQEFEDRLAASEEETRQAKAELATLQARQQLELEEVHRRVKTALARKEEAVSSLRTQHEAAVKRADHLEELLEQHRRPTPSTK
Sequence of UniProt P45973 (P45973 whole entry, looked up): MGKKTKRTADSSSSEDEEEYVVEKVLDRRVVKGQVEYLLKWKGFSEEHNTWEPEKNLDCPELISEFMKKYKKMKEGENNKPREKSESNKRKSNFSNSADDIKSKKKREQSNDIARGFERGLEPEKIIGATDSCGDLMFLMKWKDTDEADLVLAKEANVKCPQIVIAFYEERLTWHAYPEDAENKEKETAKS
Sequence of UniProt Q9NYF8 (Q9NYF8 whole entry, looked up): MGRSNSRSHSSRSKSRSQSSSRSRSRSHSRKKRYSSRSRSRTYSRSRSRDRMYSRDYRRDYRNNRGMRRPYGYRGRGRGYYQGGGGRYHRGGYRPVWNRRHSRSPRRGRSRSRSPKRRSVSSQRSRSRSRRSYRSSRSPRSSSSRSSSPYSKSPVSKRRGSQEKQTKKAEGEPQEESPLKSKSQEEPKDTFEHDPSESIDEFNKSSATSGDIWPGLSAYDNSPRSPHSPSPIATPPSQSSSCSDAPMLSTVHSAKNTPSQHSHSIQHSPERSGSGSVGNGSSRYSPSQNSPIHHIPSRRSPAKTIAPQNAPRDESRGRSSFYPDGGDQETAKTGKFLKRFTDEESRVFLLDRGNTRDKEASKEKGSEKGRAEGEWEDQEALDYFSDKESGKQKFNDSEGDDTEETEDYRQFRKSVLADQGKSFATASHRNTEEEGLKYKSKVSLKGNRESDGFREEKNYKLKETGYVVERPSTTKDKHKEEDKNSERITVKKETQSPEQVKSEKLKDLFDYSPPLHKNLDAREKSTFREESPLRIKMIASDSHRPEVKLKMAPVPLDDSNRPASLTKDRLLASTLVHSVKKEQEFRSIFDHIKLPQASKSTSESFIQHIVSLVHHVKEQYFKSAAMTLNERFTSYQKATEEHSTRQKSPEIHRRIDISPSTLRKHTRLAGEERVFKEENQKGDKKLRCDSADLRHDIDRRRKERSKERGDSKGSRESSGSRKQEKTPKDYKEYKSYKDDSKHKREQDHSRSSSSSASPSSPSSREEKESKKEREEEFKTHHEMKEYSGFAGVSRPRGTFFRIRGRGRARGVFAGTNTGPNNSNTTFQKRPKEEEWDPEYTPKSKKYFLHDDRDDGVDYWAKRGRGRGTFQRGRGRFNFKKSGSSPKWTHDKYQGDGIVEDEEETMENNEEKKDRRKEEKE
Sequence of UniProt Q8N4S0 (Q8N4S0 whole entry): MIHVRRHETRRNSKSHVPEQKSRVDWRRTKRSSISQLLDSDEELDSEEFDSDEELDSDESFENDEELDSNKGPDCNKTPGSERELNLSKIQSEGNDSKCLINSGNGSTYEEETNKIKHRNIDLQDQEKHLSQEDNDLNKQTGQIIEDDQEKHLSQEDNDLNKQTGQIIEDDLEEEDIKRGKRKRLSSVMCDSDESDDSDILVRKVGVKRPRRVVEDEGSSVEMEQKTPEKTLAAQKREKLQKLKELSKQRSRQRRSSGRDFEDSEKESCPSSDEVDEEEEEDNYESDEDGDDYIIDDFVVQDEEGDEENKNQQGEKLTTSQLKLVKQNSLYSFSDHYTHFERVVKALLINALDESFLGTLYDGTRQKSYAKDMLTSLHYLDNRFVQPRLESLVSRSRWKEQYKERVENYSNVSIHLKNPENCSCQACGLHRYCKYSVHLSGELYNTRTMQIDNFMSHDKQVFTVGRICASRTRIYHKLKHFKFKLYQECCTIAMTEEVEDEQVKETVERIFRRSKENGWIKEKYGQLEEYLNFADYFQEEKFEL
Sequence of UniProt Q14790 (Q14790 whole entry, looked up): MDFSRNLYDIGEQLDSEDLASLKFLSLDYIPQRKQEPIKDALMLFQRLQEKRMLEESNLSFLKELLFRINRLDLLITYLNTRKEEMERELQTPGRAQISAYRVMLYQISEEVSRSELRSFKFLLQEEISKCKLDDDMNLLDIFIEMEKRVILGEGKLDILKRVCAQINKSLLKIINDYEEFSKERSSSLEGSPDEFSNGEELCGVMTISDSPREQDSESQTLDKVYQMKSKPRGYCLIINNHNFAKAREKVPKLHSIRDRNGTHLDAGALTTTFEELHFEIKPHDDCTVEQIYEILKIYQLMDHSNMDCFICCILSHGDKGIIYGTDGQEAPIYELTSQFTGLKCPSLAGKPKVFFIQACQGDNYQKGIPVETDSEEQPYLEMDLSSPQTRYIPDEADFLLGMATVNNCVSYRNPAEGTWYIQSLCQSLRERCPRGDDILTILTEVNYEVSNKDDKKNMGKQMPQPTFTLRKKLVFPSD
Sequence of UniProt P49589 (P49589 whole entry, looked up): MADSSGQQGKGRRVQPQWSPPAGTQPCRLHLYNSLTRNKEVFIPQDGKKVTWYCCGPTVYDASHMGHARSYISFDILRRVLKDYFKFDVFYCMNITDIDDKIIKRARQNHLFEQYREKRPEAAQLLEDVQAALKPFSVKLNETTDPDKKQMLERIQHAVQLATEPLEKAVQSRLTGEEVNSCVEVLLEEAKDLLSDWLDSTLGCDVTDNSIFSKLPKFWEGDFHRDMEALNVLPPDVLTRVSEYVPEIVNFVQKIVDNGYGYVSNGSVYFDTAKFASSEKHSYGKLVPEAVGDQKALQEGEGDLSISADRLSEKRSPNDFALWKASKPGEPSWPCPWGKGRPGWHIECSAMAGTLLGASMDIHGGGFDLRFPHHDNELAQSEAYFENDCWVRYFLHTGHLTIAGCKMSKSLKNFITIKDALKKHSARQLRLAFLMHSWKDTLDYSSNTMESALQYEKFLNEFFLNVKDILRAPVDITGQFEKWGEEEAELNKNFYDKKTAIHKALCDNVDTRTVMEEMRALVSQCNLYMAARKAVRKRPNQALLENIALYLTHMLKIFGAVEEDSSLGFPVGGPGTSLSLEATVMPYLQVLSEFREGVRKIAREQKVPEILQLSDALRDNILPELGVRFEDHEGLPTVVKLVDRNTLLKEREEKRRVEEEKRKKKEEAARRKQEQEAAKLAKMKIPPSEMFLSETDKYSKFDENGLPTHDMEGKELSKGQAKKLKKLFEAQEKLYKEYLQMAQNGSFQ
Sequence of UniProt Q13867 (Q13867 whole entry, looked up): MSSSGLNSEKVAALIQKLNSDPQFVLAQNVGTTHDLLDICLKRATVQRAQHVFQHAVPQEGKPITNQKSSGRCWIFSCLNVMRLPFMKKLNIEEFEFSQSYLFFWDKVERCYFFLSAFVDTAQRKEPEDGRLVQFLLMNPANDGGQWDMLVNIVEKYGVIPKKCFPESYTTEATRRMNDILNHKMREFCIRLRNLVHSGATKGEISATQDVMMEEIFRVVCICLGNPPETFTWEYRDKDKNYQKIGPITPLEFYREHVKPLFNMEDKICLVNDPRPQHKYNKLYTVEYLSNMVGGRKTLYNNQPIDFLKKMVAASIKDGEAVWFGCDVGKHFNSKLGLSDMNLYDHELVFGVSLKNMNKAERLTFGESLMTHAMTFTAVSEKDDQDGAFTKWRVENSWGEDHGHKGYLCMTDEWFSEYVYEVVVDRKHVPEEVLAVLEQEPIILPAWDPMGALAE

Target | probe-labelled cysteine peptide fold change
BIRC6_Q9NR09_1319_CAMLQFSEFHEK (UniProt Q9NR09) | -0.0296
CKAP5_Q14008_637_AVELMDRTEMPCQALVR (UniProt Q14008) | -0.107
CAD_P27708_1215_VIECNVR (UniProt P27708) | 0.174
BLMH_Q13867_269_ICLVNDPRPQHK (UniProt Q13867) | -0.0458
CCT7_Q99832_158_CAMTALSSK (UniProt Q99832) | 0.0449
CLPB_Q9H078_572_INEIVYFLPFCHSELIQLVNK (UniProt Q9H078) | 0.361
CISD3_P0C7P0_71_KQPFCDGSHFFQR (UniProt P0C7P0) | -0.114
CBX5_P45973_59_NLDCPELISEFMK (UniProt P45973) | 0.16
CAD_P27708_484_NERPDGVLLTFGGQTALNCGVELTK (UniProt P27708) | 0.0927
CLPX_O76031_538_CELNVTEDALK (UniProt O76031) | -0.194
BCLAF1_Q9NYF8_688_CDSADLRHDIDR (UniProt Q9NYF8) | -0.675
BIRC6_Q9NR09_3673_RHHVPQQCNK (UniProt Q9NR09) | -0.383
BCL2L12_Q9HB09_266_ACPGPPPPSPEPLAR (UniProt Q9HB09) | -1.45
CASP7_P55210_70_CIIINNK (UniProt P55210) | 0.0573
CEP290_O15078_998_TSNLEHLECENISLK (UniProt O15078) | -0.0327
CARS_P49589_506_ALCDNVDTR (UniProt P49589) | 0.0156
CAND1_Q86VP6_1007_NCIGDFLK (UniProt Q86VP6) | 0.0435

Target | probe-labelled cysteine peptide fold change
CEP131_Q9UPN4_648_CEAVVAELK (UniProt Q9UPN4) | 0.0263
CHURC1_Q8WUH1_91_NCHHVIAR (UniProt Q8WUH1) | 0.0974
CASP8_Q14790_309+312+313_IYQLMDHSNMDCFICCILSHGDK (UniProt Q14790) | 0.0881
BST1_Q10588_144_VADFLSWCR (UniProt Q10588) | 0.0714
CCNB2_O95067_131_IEDIDNEDWENPQLCSDYVK (UniProt O95067) | 0.148
BPNT1_O95861_243_ASAYVFASPGCK (UniProt O95861) | -0.327
CCAR2_Q8N163_644_GEASEDLCEMALDPELLLLRDDGEEEFAGAK (UniProt Q8N163) | 0.116
CCDC82_Q8N4S0_422+424_NPENCSCQACGLHR (UniProt Q8N4S0) | 0.307
CCNE2_O96020_109_NLFINPSPLPDLSWGCSK (UniProt O96020) | -0.35
CLIC4_Q9Y696_189_KFLDGNEMTLADCNLLPK (UniProt Q9Y696) | -0.0667
BRAP_Q7Z569_110_ECINAAPDSPSK (UniProt Q7Z569) | -0.14
CKAP5_Q14008_1203_TQMSSCVAK (UniProt Q14008) | 0.056
CC2D1B_Q5T0F9_86_LAADCMR (UniProt Q5T0F9) | -0.00506
CEPT1_Q9Y6K0_11_CGDSHPESPVGFGHMSTTGCVLNK (UniProt Q9Y6K0) | -2.02
BAZ1B_Q9UIG0_338_LWCHVHLK (UniProt Q9UIG0) | 0.0758
BMP2K_Q9NSY1_912_VNVQECHAVGPEAHTIPGYPK (UniProt Q9NSY1) | -0.187
